The source gives no read counts; variants with many changes may rest on few reads.
B1: LINE1-mini (parent)
chain: GGCAGAGCUCAACACAGCGUGGCAAAGUGGCUGUGGCUAGACUGCC

Variants of: B1
Assay: self-cleavage, relative activity (ratio to wild type); higher = more cleavage; in vitro, sequencing; the parent is a self-cleaving ribozyme

Variant | self-cleavage
GGCGGAGCACAACCCAGCGUGGCAAAGUGGCUGUGGCUAGACUGCC | 0.24
GGCAGAGCUCGGCACAGCGUGGCAAUGUGGCUCUGGCUGGACUGCC | 0
GGCAGAGCUCAACACAGCGGGGCAGAGUAGCUGAGGCUAGACUGCC | 0.04
GGCAGAGCUCAACACAGCGUGGCAAAGUUGCUGUGGCAAGACUGUU | 0.86
GGCAGAGCUCAACACAGCGUGGCGAAGUGGCUGUGACAAUACCGCC | 0.01
GGCGGGGCUCAACACAGCGUGGCAAAGUGGCUAUUGCUAGAAUGAC | 0.03
GGCAGAGCUCAACACAGCGUAGCAAAGUGGCCGUGGCCAGACUGCC | 0.06
GGCAGAGCUCAACACAGCUUGGGAAAGUGGCUGCGCCGGGACUGCC | 0.03
GGCAGAGCUACACACAUCGUGGCAAAGUGGCAGCUGCUAGACUGCC | 0.01
GGCAGAGCUCAACACAGCGUGGCAUAGUGACUCUAGCUAGACUGUC | 0.04
GGCACAGCUCAACAAAGCGUGGCAAAGUGGCUGUGGCUAUACUGCA | 0
GGCAGAGCUCAACCCAUCGCUGCAAAGUGGCUGUGGCUAGACUGAC | 0.14
GGCAGCGCUCCAAAAAGCGUGGCAAAGUGGCUGUGGAUAGACUGGG | 0.01
GGCAGAGAUCAACCCAGCGUGGCAAAGUGGCUGUGGCUAGACUCCC | 0.03
GGCUGAGCACAACACAGCGUGGCAAAGUGGGUGUGGCUAGACUGCA | 0.01
GGCAUAGCUCAACACAGCGUGACAAAGUGUCUGUGGCUAGACUGCC | 0.05
GGCAGAGCUUAACACAGGGUUGCAAAGUGGCUGUGGCUAGACUGCC | 0.09
GGGAGAGCUCAACACUGCCUAGGAAAGUGGCUGUGGCUAGACUGUC | 0.06
GGCAGAGCUGAAUACAGCGUGGCAAAGUCGCUGUGGCUAGACUGCC | 0.01
GGCAGAGCUAAACACAGCGUGGCAAAGAGGCUGUGGCUAGACUUCC | 0
GGGAGAGCUCAACACAGCAUUGCAAAGUGGCUGUGGCUAGACUGCC | 0.06
GGCAGAGCUCGACACAGCGUGGCAAAGUGGCUGUGGCUAUACUGAC | 0
GGCAGAGCUAAACACAGCGUGGCAUAGUGGCUGUAGCUAGACUGCC | 0.03

Variant | self-cleavage
GGCAGAGCUCAGCACAGCGUCGGCAAGUGGCUGUGGCUAGACUGCC | 0.02
GGCUGAGAUCAACACAGCCUGGCAAAGUGGCUAUGGCUAGACUGCG | 0.07
GGUAGAGCCCAAUACACCGUGGCAAAGUGGCUGUGACUAGACUGCC | 0.05
CGCAGAGCUCAACACAGCGUGGCAAAGUGGCGGUGGCUAGACUGCG | 0.03
GGCAGAGCUCAACUCAGCGUGGCAAAGUGGAUGUCGCUAGACUGCC | 0.06
GGCAGAGCACAACACAGCGUGGCAAAGUGCCUGUCGUUAGACUGCC | 0.02
GGCAGAGCUCAACAAAGCGUGGCAAAGUGGCUGUGGCUUGACUUCC | 0.03
GACAGAGCUGAACACAGCGUGGCAACGUGGCUGUGGCUAGACUGCC | 0.07
GGCAGAGCUCAACACUAGGAGGCAAAGUGGCUGUGGCUAGAGUGCC | 0.05
GGCAGAGCUCAACACAGCGUGGCAAAGUGGCUUAGGCUAGACUGCU | 0.05
GGCAGAGAUCAAAACAGCGUGGCAAAGUGGCUGUGGCUAGACUACC | 0.33
GGCAGGGCUCAAGACAGCGUGGCAAAGUAGCUGUGGCUAGACUGCC | 0.07
GGCAGAGCUCGACACAGCGUGGCAGAGUGGCUUUGGCUAGACUGCC | 0.02
GGCAGUACUCAACACUGCGUUACAAAGUGGCUGUGGCUAGAGUACC | 0.01
GGCAAAGCUCAACGCAGCGUGGCAUAUUGGCUACGGCUAGACUGCC | 0.13
GGCAGAUCGCAACACAGCGUGGCAUAGUGGCUGUGGCUACACUGCC | 0.02
GGCAGAGCUCAACACAGCGUGGCAAAGGGGCUGUGCCUAGACUACC | 0.03
GGCAGAGCUCAACAUAGCGUGCCAAAGUGGCCGUGGCUAGACUGCU | 0.04
GGCAGAGGUCAACACAGCGUGGCAUAGUGGCUGUAGUUAGACUUCC | 0.01
GGCAGAGCUCAACACAGCGAGGCAAAGUGGCUGUGGCUAGAUUUCU | 0
GGCAGAGCUCAACUCAGCGUGGCAAAGUGUAUGUGGCUAGACUGCC | 0.04
GGCAGAGUUUAACACAGCGUGGCAAGGUGGCUGUGGCUAGACUGCC | 0.08
GGCAGAGCUUAACACAGCGUGCCAAAGUUGCUGUGACUAGACUGCC | 0.03

Variant | self-cleavage
GGCAGAGCUGAACACAGCGUGGCAAAAUGGCUGUGGCUAAACUGCC | 0.01
GUCAGAGCUCAACACAGCGUGGCAAAGUUGCUGAGGCAAGACUGCC | 0.03
GGCAGAGCUCAACACAGCGUGGCCAAGUGGCUGUGGCUAUGCUACC | 0.08
AGCAGAGCUCAACACGGCGUGGCAAAGGGGCUGUGGCUAGACUGCC | 0.11
GGCAGAGCUCACCACAGAGUGGCCAAGUGGCUGUGGCUAGACUGCC | 0.02
GGCAGAGCUCAACACAGCGAGGCAAAGUAGCUGUGGCUAGCCUGCC | 0.08
GGCCUAGCUCAACAAAGCGUGACAAAGUGGCUGUGGCUAGAGUGCC | 0.16
GGCAGAGCUGAACACAGAGUGGCCAAGGGGCUGUGGAUAGACUGCC | 0.01
GGCAGAGCUCAACACAGCGUGGCAAACUGUCUGUAGCUAGACUGCC | 0.08
GGCCCAGCUCAACACAGCGUGGCAAAGUGGAUGUGGCUAGAAUGCC | 0.11
GGCAGAGCUCAACACAGCAUGGCAGAGUGGCAGUGGCUAGACUGCC | 0.06
GGCAGAGCUCAACACAGCGUGGCAUAGUGGCUGUGGGUAGACUACC | 0.16
GGCAGAGCUCAACACAGCGUGGCAAAGUGGAGGUCGCAAGACUGCC | 0.04
GGCAGAGCUCAACACAGUGUGGAAAAGUGGCUGUCGCUAGACUGCC | 0.02
GGCAGAGCACAACACAGCGUGGCAAAGUGGAUGUUGCUAGACUGCC | 0
GGCAGAGCUCAAAACAGCGUGGCGUAGUGGCUGUUGCUAGACUGCC | 0.06
GGCAGAGGUCAAAACAGCGUGGUAAAGUGGCUGUGGGUAGACUGCC | 0.11
GGCAGAGGUCAACACAGCGUGGCAAAGUGGAUGUGGCGAGACUGCC | 0
UGCAGAGCUCAACACAGCUUGGCAAAGUGGCUGUGGCUAGACUGCG | 0.2
GGCAGAGCUCAACACAGCGUGGCCAAGUGGCUGUGGCUUGAGUGCC | 0.02
GGUAGAGCACAACACAGCGUGGCAAAGUGGCUGUGGAUAGACUGCC | 0.4
GAAAGAGCUGAACAGAGCAUGGCAAAGUGGCUCUGGCUUGACUGCC | 0.06
GGCAGAGCUCAACAAAGCGUGCCAAAUUGGCUGUGACUAGACUGCG | 0.06

Variant | self-cleavage
GGCAGAGCUCAACAGCACGUGGCAAAGUGGCUGUUGCUGUACUGCC | 0.01
GGCUGAGCUCAACCCAGCGUGGCAAAGUCGCUGUGGCUAGACUGCC | 0.02
GCCAUAGAUCAACACAGCGUGGCAAAGUGGAUGUGGCUAGACUGCC | 0.07
GGCAGAGCGCACCACCGCGUGGCAAAGUGGCUGUGGCUAGACUGCC | 0.02
GGCAGAGCUCAACACAGUGUUGCAAAGUGGCUGUGGCUAGACUACC | 0.14
GGUACAGCUCAACACAGCGUGGCAAAGUGGCUUUGGCUAGACUGCA | 0.02
GUCAGAGCUCAACACAGCGUGGCAAAGUGGCUGCGGCUAGGCUGCC | 0.03
GGCAGAGCUCAACACAGCGUUGCAAAGUGGCUGUAGCUAGACUGUC | 0.04
GGCACAGCUCAACACAGCGUGGCAAAGCGGCGGUGGCUAGACUGCC | 0.02
GGCAGAGCUCGACACAGCGUGGCAAAGUGGCUGUGGAUGAACUGCC | 0
GGCAGAGCUCAACACAGCGUGGCAAAGUGGGUAUGGCUAGACCCCC | 0.05
GGCAGAGCUCAACACAGCGUGGCAAGUUAGCUGUGGCUACACUGCC | 0.07
GGCUGAGCUCAACACAGGGUGGUAAAGUUGCUGUGGCUAGACAGCC | 0.05
GGUAGAACUCAACACUGCGUGGCAAAGUGGCUGUGGCUAGACUGCC | 0.22
GGCAGAGCUCAACACAGCCUGGCAAAGUGGGUGUGGCUACACUGCC | 0.03
GGAAGAGCUCAACACGGCGUGGCAAAGUGACCGUGGCUAGACUGCC | 0.16
GGCAGAGCUCAACAUAGCGCCGCAAAGUGGCUGUGGCUAGACUGCC | 1.85
GGCAGAGCUCAAAAUAGCGUGACACAGUGGCUGUGGCUAGACUGCC | 0.12
GGCAGAGCUCAAAACAGCGUGGCGAAGUGGCUGUGGCUAGACUCCC | 0.03
UGCAGAGCUCAACACACCGUGGCAAAGUGGCUGUGUCUAGACUGCU | 0.03
GGCAGAGCUCAACACAGGGUGGCAUAGUGGCCGUGGCUAGACUGCC | 0.29
GGCUGAGCUCAACGCAGCGUGGCAAAGUGUCUGUGGCUAGACCGCC | 0.04
GGCAGAGCACAACAUAGUGUGGCAAAGUGGCUGUGGCUAGACGGCC | 0

Variant | self-cleavage
GGUAGAAAUCAACACAGCAUGGCAAAGUGGCUGAGGCUAGACUGCC | 0.08
GGCAGAGCUCCACACAGAGUGGCAAAGUGGCUGGGGCAAAACUGCC | 0.01
GGCAGAGCUCAACUCAGCGUGGCAUAGUGGCUGUGGCUAUACUGGC | 0.03
GGCAAAGCUCAAUAUAGCGUGGCAAAGUGCCUGUGGCUAGACUGCC | 0.06
GGAAGAGCUCGACACCGCGUGGCAAAGUGGCGGUGGCAAGACUGCC | 0
GGCAGAGCUCAACAAAGCGUGGCAAAGUGGCUGUAGGUAGACUCCC | 0.01
GGAAGAGCUCACCACAGCGUGGCAGAGUGGCUGUGGCUAGACUGCC | 0.06
GGCAGAGCUCAACACAGCGUGGGAAACUGGGUGUGGCUAGACUGCC | 0.96
GGCAGAGCUCCACACAGCGUGGCAAAAGGGCUGUGGCUAGACUGCC | 0.02
GGCAGAGCUCACCGCAACGUAGGAAAGUGGCUGUGGCUAGACUGCA | 0.02
GGCACAGCUCAACACAGAGUGGCAAAGUGGCUGUGGCUAGACAGCC | 0.02
GGCAGACCUCAACACAGCGUGGAAAAGUGUCUGUGGCUCGACUGCC | 0.37
GGCCGAGCUCAACACAGCGUCGCAAAGUGGCUGUGGUUAGACUGCC | 0.03
GGGAGAGCUCAAUACAGCUCGGCAAAGUGCCUGUGGCUAGACUGCG | 0.04
GGCAGAGCUCAAGACAGCGUGGCAAACUAGCUGUGGCUAGACCGCC | 0.09
GCCAUAGUUCAACACAGAGUGGCAAAGUGGCUGUGGCUAGAUUGCC | 0.05
GGCAGAGCUCAUCACGGCGCGGCAAAGUGGCUGUGGCCAGAGUGCC | 0.02
GGCAGAGAUCAACACAGCGUGGAAAAGUGGCUGUAGCUAGACUGCC | 0.07
GGCAGAGCUCAACACAGCGUGGCGAAGUGGGUGGGGAUACACUGCC | 0.01
GGCAGAGCUCAAUUCAGCGUGGCAAAGUGGCUGUUGCUAGACUGCC | 0.23
